# Results taken from PubChem BioAssay AID1347120 (National Center for Advancing Translational Sciences (NCATS), 2019).
# The campaign covered roughly 390,000 compounds. About 930 (0.24%) were called active. Inconclusive means that the source gave no clear call. Such entries were picked first, then a sample of the others. Calls follow the shape of the dose curve; as a rule, active = well fitted activation curve with a large enough effect; inconclusive = small, poorly fitted or top-dose-only effect; inactive = no such curve, though single readings can be large or run the other way. Potencies beside an inconclusive call are fits to weak or partial responses and may not hold up.
# Test: qHTS for Suppressors of FUS Proteinopathy: Primary screen using FUS-linked yeast assay; also: nearly all actives have a fitted effect of over 55% in size;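 as to growth rescue (activation): plate controls were DMSO vehicle for no effect and reference control for full effect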
# Settings: S. cerevisiae FUS-expressing, OD600, 24 h; Potency: growth rescue; growth rescue (activation): at 76.6 µM (top of the series)
# How it was run: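 Restored growth of FUS-toxic S. cerevisiae, read as 600 nm absorbance after 24 h at 30C in galactose medium (starting OD 0.005). Controls CP55940 and DMSO.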
# Potency is read from the fitted curve at half-maximal effect; tags tell the direction and shape of the fitted curve.
SMILES,Potency,growth rescue (activation)
O=C(NCc1ccccc1Cl)c1cccc(NC(=O)c2ccccc2)c1,"inconclusive: 15.8 µM [activator, partial curve]",–
Cc1ccc(NC(=O)C2CCCN(S(=O)(=O)c3c(C)noc3/C=C/N(C)C)C2)c(C)c1 (centres undefined),"inconclusive: 12.6 µM [activator, partial curve]",–
COc1ccc(NS(=O)(=O)c2cc(NC(=O)CCNC(C)=O)ccc2N2CCCCC2)cc1,active: 31.6 µM,–
C[C@H]1CN([C@@H](C)CO)S(=O)(=O)c2ccc(C3=CCCC3)cc2O[C@@H]1CN(C)C(=O)C1CCCCC1,"inconclusive: 28.2 µM [activator, partial curve, poor fit]",–
COC(=O)[C@]12C[C@H](CC(=O)NCCC(C)C)C(=O)N(Cc3ccco3)C1=C[C@H](COCc1ccccc1)O[C@@H]2C,"inconclusive: 31.6 µM [activator, single point]",–
Cc1ccc(S(=O)(=O)N(CC(=O)Nc2c(C)cccc2C)c2cccc(Cl)c2)cc1,–,inactive: 13.1%
CC(C)(C)c1ccc(OCCC(=O)Nc2cccc(S(=O)(=O)NC3=NCCCCC3)c2)cc1,"inconclusive: 28.2 µM [activator, single point]",–
CCOc1cc(C=NN2CCN(Cc3ccc(C)cc3)CC2)ccc1O,–,inactive: 9.12%
CCOC(=O)c1ccc(NC(=O)CN(c2ccc(C)cc2)S(=O)(=O)c2c(C)nn(C)c2C)cc1,"inconclusive: 20 µM [activator, partial curve]",–
CCOc1ccc(C(=O)NC(=S)Nc2ccc(N3CCC(C)CC3)cc2)cc1[N+](=O)[O-],"inconclusive: 12.6 µM [activator, partial curve, poor fit]",–
CC(C)(C)OC(=O)C[C@@H]1C/C=C\C[C@H](CC(=O)N[C@H](CO)Cc2ccccc2)C(=O)N[C@H](Cc2ccccc2)COC1=O,"inconclusive: 31.6 µM [activator, single point]",–
COC(=O)c1cc(C)nc2c1c(=O)nc(SCc1c(C)cc(C)cc1C)n2C1CC1,–,inactive: 34.4%
CN(C)c1ccc2c(c1)Sc1cc(N(C)C)ccc1N2C(=O)c1ccccc1,"inconclusive: 14.1 µM [activator, partial curve, poor fit]",–
C/C(Cl)=C\Cn1c(Nc2ccc(C)cc2)nc2c1c(=O)n(C)c(=O)n2C,–,inconclusive: 51.8% [activator]
CN=c1scc(-c2cccs2)n1/N=C/c1ccc(O)c(O)c1O,active: 31.6 µM,–
Cc1ccccc1CNC(=O)CCSCc1cnn(-c2ccccc2)c1-n1cccc1,"inconclusive: 15.8 µM [activator, partial curve]",–
COc1ccc(/C(N)=N/OC(=O)CC2CCCCC2)cc1OC,"inconclusive: 31.6 µM [activator, single point]",–
O=C1[C@H]2[C@@H](C(=O)N1c1cccc3ccccc13)C1(C(=O)c3ccccc3C1=O)N1CCC[C@@H]21,"inconclusive: 22.4 µM [activator, single point]",–
COc1ccc(-c2sc3ccc(N4CCOCC4)cc3c2C#CCCO)cc1,"inconclusive: 25.1 µM [activator, single point]",–
CCOc1ccc(CCNC(=O)c2cc3c(-c4ccccc4F)nn(C)c3s2)cc1OCC,"inconclusive: 20 µM [activator, single point]",–

SMILES,Potency,growth rescue (activation)
CCOc1ccc(CCNC(=O)c2nnn(CC(=O)Nc3c(C)cc(C)cc3C)c2N)cc1OCC,"inconclusive: 11.2 µM [activator, single point]",–
COc1ccc(C2c3c(-c4ccc(F)cc4)n[nH]c3C(=O)N2c2ccccc2)cc1OC (centres undefined),"inconclusive: 50.1 µM [activator, single point]",–
C[C@@]12C(=O)N(CCc3c[nH]c4ccccc34)CC(=O)N1[C@H]1c3ccccc3OC[C@@H]1[C@@H]2c1ccccc1,"inconclusive: 15.8 µM [activator, partial curve, poor fit]",–
O=C(NN=Cc1ccc(O)c(O)c1)c1ccccc1,–,inactive: 19.5%
CN1CCN(C(=O)c2cn(-c3ccccc3)nc2-c2cccnc2)CC1,"inconclusive: 11.2 µM [activator, single point]",–
COc1ccc(-n2c(=S)[nH]c3ccccc32)cc1,"inconclusive: 31.6 µM [activator, partial curve, poor fit]",–
C=CC[C@@H](Cc1ccc(F)cc1)C(=O)OC[C@H]1CCCN1C(=O)[C@@H](CC=C)CC(=O)N[C@H](CO)Cc1ccccc1,"inconclusive: 28.2 µM [activator, single point]",–
O=C(c1cc(-c2cccs2)nc2ccccc12)N1CCN(S(=O)(=O)c2cccc(F)c2)CC1,"inconclusive: 28.2 µM [activator, single point]",–
COc1ccc(NC(=O)CN(C)C(=O)C(Sc2ccccc2)c2ccccc2)cc1 (centres undefined),"inconclusive: 50.1 µM [activator, single point]",–
COC(=O)c1c(N(S(C)(=O)=O)S(C)(=O)=O)sc2c1CCN(c1ncc(C(F)(F)F)cc1Cl)C2,–,inactive: 36.9%
CN(CC(=O)Nc1cc(S(=O)(=O)N2CCCC2)ccc1Cl)Cc1nc2ccccc2c(=O)[nH]1,"inconclusive: 20 µM [activator, single point]",–
C#CCOCCOCCOCCNc1nc(N2CCN(C(=O)[C@H](CCCCN)n3cc(CCCC)nn3)CC2)nc(N2CCN(C(=O)[C@H](CCCCN)n3cc(CCCC)nn3)CC2)n1,"inconclusive: 15.8 µM [activator, partial curve]",–
CCCCCN(C(=O)CCC(=O)OCCOc1ccc(OC)cc1)c1c(N)n(CCCC)c(=O)[nH]c1=O,"inconclusive: 39.8 µM [activator, partial curve, poor fit]",–
Cc1cccc(N2CCN(C(=O)C3CCN(S(=O)(=O)N4CCOCC4)CC3)CC2)c1C,"inconclusive: 22.4 µM [activator, partial curve]",–
Cn1c(CCN2CCCCCC2)nc2cc(NC(=O)Nc3ccccc3)ccc21,"inconclusive: 7.94 µM [activator, partial curve, poor fit]",–
O=C(NCCc1ccc(Cl)cc1)c1ccc2c(c1)N(Cc1cccc(Cl)c1)C(=O)c1ccccc1S2(=O)=O,"inconclusive: 20 µM [activator, partial curve, poor fit]",–
CC(C)C[C@H]1C(=O)N2CCC[C@H]2[C@]2(O)O[C@](NC(=O)C3C=C4c5cccc6[nH]c(Br)c(c56)C[C@H]4N(C)C3)(C(C)C)C(=O)N12 (some centres undefined),"inconclusive: 39.8 µM [activator, partial curve, poor fit]",–
Cc1nnc(Sc2cc(NCCCO)c([N+](=O)[O-])c3nonc23)s1,–,inactive: 20%
O=C(NCc1ccco1)c1ccc(S(=O)(=O)N2CCOCC2)cc1,"inconclusive: 20 µM [activator, partial curve, poor fit]",–
Cn1c(=O)c2c(ncn2CC(=O)OCC(=O)NCc2ccc(F)cc2)n(C)c1=O,–,inactive: -8.56%

SMILES,Potency,growth rescue (activation)
COc1cc(-c2ccc3oc(-c4ccsc4)c(C#CC4(O)CCCCC4)c3c2)cc(OC)c1OC,–,inactive: 44.6%
Cc1ccc(/C(N)=N/OC(=O)Cc2cccc3ccccc23)cc1,–,inactive: 13.6%
Cc1ccc(-c2cc(-c3nnc(SCC(=O)NC4CCCCC4)n3N)[nH]n2)cc1,–,inactive: -1.42%
O=C(CCn1ccc2cc(S(=O)(=O)N3CCCC3)ccc21)NCc1ccccc1Cl,–,inactive: 36.7%
O=c1c(O)c(-c2ccccc2)oc2cc(O)cc(O)c12,–,inactive: -3.22%
COc1ccc(-c2cc(CNc3nc4cc(-c5ccccc5C)sc4c(=O)n3C)on2)cc1,–,inactive: 19%
Cc1ccc(NC(=O)c2ccc(CS(=O)(=O)Cc3ccccc3C)o2)c(C)c1,–,inactive: 16.7%
CCN1CCCCC(NC(=O)c2ccc(F)c(F)c2)C1=O (centres undefined),–,inactive: 21.9%
Cc1sc2ncn(CC(=O)N(C)c3cccc(C(F)(F)F)c3)c(=O)c2c1S(=O)(=O)N1CCN(c2ncccn2)CC1,"inconclusive: 25.1 µM [activator, partial curve, poor fit]",–
CCCCC(=O)Nc1nc(C)c(-c2csc(Nc3ccccc3OC)n2)s1,"inconclusive: 28.2 µM [activator, single point]",–
COCOCCn1cc(CN2CCS(=O)(=O)N(Cc3ccc(-c4ccc(Cl)cc4)cc3)C(CC(C)C)C2=O)nn1 (centres undefined),"inconclusive: 31.6 µM [activator, single point]",–
CC(C)(C)OC(=O)[C@H](Cc1ccccc1)NC(=O)c1nc[nH]c1C(=O)NCC(=O)OCc1ccccc1,"inconclusive: 25.1 µM [activator, partial curve, poor fit]",–
O=C(CSc1nc(-c2ccccc2)cc(C(F)(F)F)n1)NCCN1CCOCC1,–,inconclusive: 50.3% [activator]
CCc1ccc(C(=O)C(C)OC(=O)c2cccc(S(=O)(=O)N3CCOCC3)c2)cc1 (centres undefined),"inconclusive: 28.2 µM [activator, single point]",–
CCOc1ccc(C2/C(=C(\O)c3cccc(OC)c3)C(=O)C(=O)N2c2ccccn2)cc1OC (centres undefined),"inconclusive: 7.08 µM [activator, full curve]",–
CCOC(=O)C1CCCN(S(=O)(=O)c2ccc(Br)c(OC)c2)C1 (centres undefined),"inconclusive: 2 µM [activator, full curve, poor fit]",–
COC(=O)CCCC1=CC2=CC(=O)C(C)(OC(=O)c3cccs3)C(=O)C2=CN1Cc1ccc2c(c1)OCO2 (centres undefined),"inconclusive: 22.4 µM [activator, single point]",–
Cc1ccc(C)c(N2CCN(C(=O)c3nn(C)c4c3CS(=O)(=O)c3ccccc3-4)CC2)c1,"inconclusive: 20 µM [activator, partial curve, poor fit]",–
COC(=O)[C@]12C[C@H](CC(=O)NCc3cccc(C(F)(F)F)c3)C(=O)N(CCC3=CCCCC3)C1=C[C@H](C1CCCC1)O[C@@H]2C,"inconclusive: 8.91 µM [activator, partial curve, poor fit]",–
